Here are results for 31 molecules from paper PMC9911399, “Two distinct binding modes provide the RNA-binding protein RbFox with extraordinary sequence specificity”.

Where a chain is given by its changes, count along the chain named. The list shows a part of the results.

First the molecules themselves.
B1: CAAAUGC (DNA:RNA)
RNA: GGGAGACCGGAAUUCAGAUUGUCCCAAAUGCUUAAAUCCCGUCGUAGCCACCA
DNA 1: CAATCTGAATTCCGGTCTCCC
DNA 2: TGGTGGCTACGACGGGATT
B2: CAACAAC (DNA:RNA)
RNA: B1 RNA with A28C, U29A, G30A
DNA 1: CAATCTGAATTCCGGTCTCCC
DNA 2: TGGTGGCTACGACGGGATT
B3: AGAGGCC (DNA:RNA)
RNA: B1 RNA with C25A, A26G, A28G, U29G, G30C
DNA 1: CAATCTGAATTCCGGTCTCCC
DNA 2: TGGTGGCTACGACGGGATT
B4: GUAAGCU (DNA:RNA)
RNA: B1 RNA with C25G, A26U, U29G, G30C, C31U
DNA 1: CAATCTGAATTCCGGTCTCCC
DNA 2: TGGTGGCTACGACGGGATT
B5: UUAACCG (DNA:RNA)
RNA: B1 RNA with C25U, A26U, U29C, G30C, C31G
DNA 1: CAATCTGAATTCCGGTCTCCC
DNA 2: TGGTGGCTACGACGGGATT
B6: AUCCAAC (DNA:RNA)
RNA: B1 RNA with C25A, A26U, A27C, A28C, U29A, G30A
DNA 1: CAATCTGAATTCCGGTCTCCC
DNA 2: TGGTGGCTACGACGGGATT
B7: GCGCCUA (DNA:RNA)
RNA: GGGAGACCGGAAUUCAGAUUGUCCGCGCCUAUUAAAUCCCGUCGUAGCCACCA
DNA 1: CAATCTGAATTCCGGTCTCCC
DNA 2: TGGTGGCTACGACGGGATT
B8: UUGUUAU (DNA:RNA)
RNA: B1 RNA with C25U, A26U, A27G, A28U, G30A, C31U
DNA 1: CAATCTGAATTCCGGTCTCCC
DNA 2: TGGTGGCTACGACGGGATT
B9: AUGUUGC (DNA:RNA)
RNA: B1 RNA with C25A, A26U, A27G, A28U
DNA 1: CAATCTGAATTCCGGTCTCCC
DNA 2: TGGTGGCTACGACGGGATT
B10: UGGUACA (DNA:RNA)
RNA: B7 RNA with G25U, C26G, C28U, C29A, U30C
DNA 1: CAATCTGAATTCCGGTCTCCC
DNA 2: TGGTGGCTACGACGGGATT
B11: UGUUCAU (DNA:RNA)
RNA: B7 RNA with G25U, C26G, G27U, C28U, U30A, A31U
DNA 1: CAATCTGAATTCCGGTCTCCC
DNA 2: TGGTGGCTACGACGGGATT
B12: CAGUACG (DNA:RNA)
RNA: B1 RNA with A27G, A28U, U29A, G30C, C31G
DNA 1: CAATCTGAATTCCGGTCTCCC
DNA 2: TGGTGGCTACGACGGGATT
B13: AACGCAU (DNA:RNA)
RNA: B1 RNA with C25A, A27C, A28G, U29C, G30A, C31U
DNA 1: CAATCTGAATTCCGGTCTCCC
DNA 2: TGGTGGCTACGACGGGATT
B14: AAGUAUA (DNA:RNA)
RNA: B7 RNA with G25A, C26A, C28U, C29A
DNA 1: CAATCTGAATTCCGGTCTCCC
DNA 2: TGGTGGCTACGACGGGATT
B15: AACUUAG (DNA:RNA)
RNA: B1 RNA with C25A, A27C, A28U, G30A, C31G
DNA 1: CAATCTGAATTCCGGTCTCCC
DNA 2: TGGTGGCTACGACGGGATT
B16: AAUAGUU (DNA:RNA)
RNA: B1 RNA with C25A, A27U, U29G, G30U, C31U
DNA 1: CAATCTGAATTCCGGTCTCCC
DNA 2: TGGTGGCTACGACGGGATT
B17: UACAAUU (DNA:RNA)
RNA: B1 RNA with C25U, A27C, U29A, G30U, C31U
DNA 1: CAATCTGAATTCCGGTCTCCC
DNA 2: TGGTGGCTACGACGGGATT
B18: CCUCUGC (DNA:RNA)
RNA: B1 RNA with A26C, A27U, A28C
DNA 1: CAATCTGAATTCCGGTCTCCC
DNA 2: TGGTGGCTACGACGGGATT
B19: UCGCUCG (DNA:RNA)
RNA: B7 RNA with G25U, C29U, U30C, A31G
DNA 1: CAATCTGAATTCCGGTCTCCC
DNA 2: TGGTGGCTACGACGGGATT
B20: UCGUGUG (DNA:RNA)
RNA: B7 RNA with G25U, C28U, C29G, A31G
DNA 1: CAATCTGAATTCCGGTCTCCC
DNA 2: TGGTGGCTACGACGGGATT
B21: GAGAACG (DNA:RNA)
RNA: B1 RNA with C25G, A27G, U29A, G30C, C31G
DNA 1: CAATCTGAATTCCGGTCTCCC
DNA 2: TGGTGGCTACGACGGGATT
B22: CCUAAAU (DNA:RNA)
RNA: B1 RNA with A26C, A27U, U29A, G30A, C31U
DNA 1: CAATCTGAATTCCGGTCTCCC
DNA 2: TGGTGGCTACGACGGGATT
B23: UUCUUGG (DNA:RNA)
RNA: B1 RNA with C25U, A26U, A27C, A28U, C31G
DNA 1: CAATCTGAATTCCGGTCTCCC
DNA 2: TGGTGGCTACGACGGGATT
B24: AGCCGGG (DNA:RNA)
RNA: B1 RNA with C25A, A26G, A27C, A28C, U29G, C31G
DNA 1: CAATCTGAATTCCGGTCTCCC
DNA 2: TGGTGGCTACGACGGGATT
B25: UCUUCUC (DNA:RNA)
RNA: B7 RNA with G25U, G27U, C28U, A31C
DNA 1: CAATCTGAATTCCGGTCTCCC
DNA 2: TGGTGGCTACGACGGGATT
B26: UCGGGGU (DNA:RNA)
RNA: B7 RNA with G25U, C28G, C29G, U30G, A31U
DNA 1: CAATCTGAATTCCGGTCTCCC
DNA 2: TGGTGGCTACGACGGGATT
B27: AGGUUGU (DNA:RNA)
RNA: B1 RNA with C25A, A26G, A27G, A28U, C31U
DNA 1: CAATCTGAATTCCGGTCTCCC
DNA 2: TGGTGGCTACGACGGGATT
B28: CCGUUGA (DNA:RNA)
RNA: B1 RNA with A26C, A27G, A28U, C31A
DNA 1: CAATCTGAATTCCGGTCTCCC
DNA 2: TGGTGGCTACGACGGGATT
B29: AAGCAUC (DNA:RNA)
RNA: B7 RNA with G25A, C26A, C29A, A31C
DNA 1: CAATCTGAATTCCGGTCTCCC
DNA 2: TGGTGGCTACGACGGGATT
B30: UUCGACA (DNA:RNA)
RNA: B7 RNA with G25U, C26U, G27C, C28G, C29A, U30C
DNA 1: CAATCTGAATTCCGGTCTCCC
DNA 2: TGGTGGCTACGACGGGATT
B31: UGCGUUU (DNA:RNA)
RNA: B1 RNA with C25U, A26G, A27C, A28G, G30U, C31U
DNA 1: CAATCTGAATTCCGGTCTCCC
DNA 2: TGGTGGCTACGACGGGATT

This assay has as its target T1, RBFOX1 RRM (Homo sapiens, UniProt Q9NWB1 109-208).
T1 sequence: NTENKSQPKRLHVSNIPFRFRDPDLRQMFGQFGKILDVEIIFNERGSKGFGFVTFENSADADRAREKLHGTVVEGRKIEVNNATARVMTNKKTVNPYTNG
The assay can be described thus: EMSA; HiTS-Eq, 1 nM pool, 10 min; buffer printed only for the single-RNA assays: 10 mM Tris pH 7.5, 150 mM NaCl, 3.4 mM EDTA, 0.001% NP-40, 30 C. The settings on record: tags: His6 N-terminal (pET28a); label: 5' 32P. The method, boiled down: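 Purified wild-type or mutant RbFox RRM at increasing concentrations was equilibrated with 1 nM of 5′-radiolabelled RNA carrying 7 randomized nucleotides for 10 min in 50 µL. Unbound RNA was separated by 8% native PAGE and sequenced. Relative association constants came from read-count changes of each RNA species compared with the control reaction, normalised to the cognate motif.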
(A gel shift assay detects complexes by their altered migration in electrophoresis.)
Take B1: the binding signal was 0.00466 KA relative to UGCAUGU.

For B2, the binding signal was 0.000499 KA relative to UGCAUGU.

B3: the binding signal is 0.0118 KA relative to UGCAUGU.

Take B4: the binding signal is 0.00888 KA relative to UGCAUGU.

With B5, the binding signal was 0.00433 KA relative to UGCAUGU.

On to B6, for which the binding signal was 0.000294 KA relative to UGCAUGU.

With B7, the binding signal was 0.00779 KA relative to UGCAUGU.

Take B8: the binding signal is 0.0102 KA relative to UGCAUGU.

For B9, the binding signal is 0.013 KA relative to UGCAUGU.

B10: the binding signal was 0.00863 KA relative to UGCAUGU.

In the case of B11, the binding signal is 0.0159 KA relative to UGCAUGU.

B12: the binding signal was 0.0115 KA relative to UGCAUGU.

Take B13: the binding signal was 0.00483 KA relative to UGCAUGU.

For the molecule B14, the binding signal is 0.000855 KA relative to UGCAUGU.

Turning to B15, the binding signal was 0.0103 KA relative to UGCAUGU.

On to B16, for which the binding signal is 0.00551 KA relative to UGCAUGU.

As to B17, the binding signal was 0.00044 KA relative to UGCAUGU.

B18: the binding signal is 0.00878 KA relative to UGCAUGU.

Take B19: the binding signal is 0.0321 KA relative to UGCAUGU.

For the molecule B20, the binding signal is 0.026 KA relative to UGCAUGU.

Consider B21, for which the binding signal is 0.0165 KA relative to UGCAUGU.

Take B22: the binding signal was 0.00166 KA relative to UGCAUGU.

With B23, the binding signal is 0.0148 KA relative to UGCAUGU.

Take B24: the binding signal is 0.0115 KA relative to UGCAUGU.

With B25, the binding signal is 0.00912 KA relative to UGCAUGU.

Turning to B26, the binding signal was 0.0175 KA relative to UGCAUGU.

In the case of B27, the binding signal is 0.0146 KA relative to UGCAUGU.

Regarding B28, the binding signal was 0.0125 KA relative to UGCAUGU.

For B29, the binding signal was 0.0137 KA relative to UGCAUGU.

Turning to B30, the binding signal is 0.00614 KA relative to UGCAUGU.

Turning to B31, the binding signal is 0.0236 KA relative to UGCAUGU.
